Whole data set: some 33,000 sequences, median “E-score (dimensionless, -0.5 to 0.5)” near -0.058, cut for the highest 2% near 0.35. The list shows a part of the results.
system: MvaT; assay: PBM 8-mer E-score (mean of HK and ME arrays) (E-score (dimensionless, -0.5 to 0.5)); higher = stronger relative binding preference; most listed sequences are background and not binding sites
Outline: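 Full-length P. aeruginosa MvaT, with glutathione S-transferase fused to its N-terminus (cloned into pTH6838 by isothermal assembly), was tested by protein binding microarray using a previously described protocol. Two universal double-stranded 60-mer arrays (ME and HK) were used, each with a constant 25-mer primer region and a variable 35-mer region covering all 8-mers. The rank-based 8-mer E-score (-0.5 to 0.5) is the mean of the two arrays, parsed with a custom Python script.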

Sequence | PBM 8-mer E-score
CCATATCC | -0.0153
AGGGCGAT | -0.151
CGTGCGAA | -0.0494
GCCTTCGC | -0.258
ACCCAAAA | 0.0589
CAAGGCAA | -0.0335
GGTACGTA | -0.12
AGCAGACT | -0.0901
TATATACA | 0.456
ACCCGGCG | -0.211
GGACTAGA | 0.0132
ACGCGAAT | 0.146
TAAACGAA | 0.225
ACATGTAT | 0.304
CGCCCTCA | -0.108
CGCAAGCA | -0.124
AGATGACC | -0.208
ATGAAGGC | -0.0572
CTTAACCA | 0.0313
ACCGCAGG | -0.197
CATGTGAC | -0.0453
AACATAGA | 0.166

Sequence | PBM 8-mer E-score
AACTTCTT | 0.315
TGACATAA | 0.195
AAGGTAAA | 0.0963
CGCGTCGC | -0.114
ACCATTAT | 0.332
AACAATCT | 0.0729
AGAAGTGG | -0.0269
TATTAACA | 0.437
CACGATGG | -0.0807
AATGCGAG | -0.0343
GCACCTAA | 0.00676
AGTCGGTG | -0.0106
CGTGGTTA | -0.0533
CCGCCTTA | -0.107
CAGGTTGG | -0.107
ACAATGCA | 0.131
CCGCACGG | -0.212
CGAAAGCC | -0.21
ATGTTCAA | 0.155
AGATTCCA | -0.159
AAGTTCCT | 0.134
AGTACTAA | 0.258

Sequence | PBM 8-mer E-score
AAGACACG | -0.0397
AGTCCGTC | -0.103
ACTGTTGA | -0.0844
AGTATCTG | 0.119
ACGATGCA | 0.0104
ATAGTAGA | 0.249
GAGGTATA | 0.121
TATATGAA | 0.382
CCCCTGAA | -0.297
ATGTATGG | 0.0711
AGACCCCC | -0.401
ATCTATTA | 0.301
AGCGCGGA | -0.105
CTTTGCCC | -0.0596
ACGCACTA | 0.12
GCTAGTTA | 0.186
CCTTCAAG | -0.246
AGCACGAT | -0.173
AAGGGTAG | -0.155
CATCCAAG | -0.116
ACGAGCCC | -0.179
GCAGAATA | 0.15

Sequence | PBM 8-mer E-score
CAACTCAC | 0.0639
ATACGGGC | -0.176
CAGTCTGG | -0.0418
ATTCTATG | -0.0228
AGGATATG | 0.0859
ATACCGAA | 0.185
TGAACAAA | 0.0923
ACTGGCAA | 0.00578
ACCGTAAA | 0.0757
AAATGTGG | 0.184
GCGCAAAA | 0.239
AAACGTAT | 0.222
GGACCCCC | -0.314
GAGCGCGC | -0.117
AAGTTCAT | 0.293
CACGTTGC | -0.2
AGGGAGTA | -0.0415
AGGCGGCC | -0.337
AGGTCGAC | -0.0553
ACTTGCAC | 0.203
AGACCACC | -0.205
TATACGAA | 0.165

Sequence | PBM 8-mer E-score
GGCCAACC | -0.159
AATTCCAC | 0.0822
ACACTCCT | 0.0228
AATGATAA | 0.242
ATCGACGC | -0.177
GCGATACC | -0.0525
CCTTAGCA | -0.228
AGAACTGA | 0.0644
TCTGGCCA | -0.097
ATGGGGCG | -0.0818
GGATTAAA | 0.232
GCGGTTGA | -0.165
ATTTAGTA | 0.257
GGCCAGAC | -0.26
AGACCTTC | -0.219
GCCCATCA | -0.205
CAGAGATG | -0.178
CATCTTCA | 0.0123
CCTGACTC | -0.279
CCCAAGAC | -0.249
CTCTCGCA | -0.219

Source: the supplement of paper PMC4466236
